Assay results from patent US20260184804A1 (KEY2BRAIN, published 2026).
Substitutions are numbered along the chain they refer to. Blank lines part the entries; values can stand above or below the binder they belong to.

Experiments:
[1] = target: T1, His-tagged ectodomain of human transferrin receptor 1 (hTfR1), amino acids R121-F760 (human, UniProt P02786 in part); assay: SPR; binder captured on protein A, receptor as analyte 0.156-40 nM; no hTf
T1 construct: Made in CHO cells, purified by IMAC; also called human TfR1; ectodomain of hTfR1

[2] = target: T1, His-tagged ectodomain of human …; assay: SPR; binder captured on protein A, receptor as analyte 0.156-40 nM; with 250 nM hTf
[3] = target: T1, His-tagged ectodomain of human …; assay: SPR (Biacore T200); binder captured on protein A chip, TfR1 ectodomain as analyte 0.16-100 nM
[4] = target: T2, His-tagged ectodomain of mouse transferrin receptor 1 (mTfR1), amino acids S122-F763 (mouse, UniProt Q62351 in part); assay: as above
T2 construct: Made in CHO cells; also called mouse TfR1

[5] = target: T3, Apical domain construct of hTfR1 displayed on M13 phage (human); assay: ELISA 'Binding to Apical-M13': plate coated with the construct, M13 phage displaying the apical domain of hTfR1 added, anti-M13-HRP detection
T3 construct: also called hTfR1-apical; apical domain of hTfR1; not shown: M13 phage coat protein of phagemid pTG3 to which the domain is fused
T3 chain: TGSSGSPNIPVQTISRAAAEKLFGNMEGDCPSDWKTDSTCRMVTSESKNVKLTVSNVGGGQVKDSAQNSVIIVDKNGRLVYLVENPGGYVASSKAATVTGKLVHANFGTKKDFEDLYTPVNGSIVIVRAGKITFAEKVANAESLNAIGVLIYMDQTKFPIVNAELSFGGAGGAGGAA

[6] = target: T1, His-tagged ectodomain of human …; assay: SPR; KD of Table 4 against KD of Table 2
[7] = target: T2, His-tagged ectodomain of mouse …; assay: SPR (Biacore T200); binder captured on protein A chip, mTfR1 as analyte
[8] = target: T3, Apical domain construct of hTfR1 …; assay: Seqitope mutagenic scanning of the phage-displayed apical domain of hTfR1
[9] = target: T4, His-tagged ectodomain of cynomolgus transferrin receptor 1 (cTfR1), amino acids R121-F760 (cynomolgus monkey, UniProt Q5RDH6 121-760 (Pongo abelii entry)); assay: SPR; binder captured on protein A, receptor as analyte 0.156-40 nM; no hTf
T4 construct: Made in CHO cells; also called cynomolgus TfR1; cynomolgus monkey TfR1
T4 chain: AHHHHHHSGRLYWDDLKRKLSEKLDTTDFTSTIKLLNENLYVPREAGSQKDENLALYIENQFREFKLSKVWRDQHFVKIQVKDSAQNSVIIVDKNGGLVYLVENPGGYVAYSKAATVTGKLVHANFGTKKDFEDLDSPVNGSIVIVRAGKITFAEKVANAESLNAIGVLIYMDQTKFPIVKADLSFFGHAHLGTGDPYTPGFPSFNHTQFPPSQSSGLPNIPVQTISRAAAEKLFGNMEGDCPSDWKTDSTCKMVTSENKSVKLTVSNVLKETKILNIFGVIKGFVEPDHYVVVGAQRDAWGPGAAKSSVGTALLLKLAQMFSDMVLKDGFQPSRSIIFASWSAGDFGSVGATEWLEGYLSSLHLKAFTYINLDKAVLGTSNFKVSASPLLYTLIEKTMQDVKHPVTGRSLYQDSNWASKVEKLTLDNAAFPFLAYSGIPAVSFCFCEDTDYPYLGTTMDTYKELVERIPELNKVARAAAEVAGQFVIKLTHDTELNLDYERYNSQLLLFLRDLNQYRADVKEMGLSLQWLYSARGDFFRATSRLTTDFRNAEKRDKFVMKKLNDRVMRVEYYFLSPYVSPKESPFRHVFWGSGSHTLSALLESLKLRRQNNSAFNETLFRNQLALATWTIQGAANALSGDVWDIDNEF

[10] = target: T4, His-tagged ectodomain of cynomolgus …; assay: SPR; binder captured on protein A, receptor as analyte 0.156-40 nM; with 250 nM hTf
[11] = target: T1, His-tagged ectodomain of human …; assay: SPR (Biacore 8K, single-cycle); VHH-Fc captured on protein A chip, hTfR1 as analyte 0.8-500 nM
[12] = target: T1, His-tagged ectodomain of human …; assay: SPR (Biacore 8K); VHH-Fc captured on protein A chip, hTfR1 as analyte
[13] = target: T3, Apical domain construct of hTfR1 …; assay: ELISA 'Binding to Apical-M13': plate coated with the construct, M13 phage displaying the apical domain of hTfR1 added, anti-M13-HRP detection (the legend calls this panel 8B)

T2 sequence (Q62351 other isoform, or with tags, fused parts or gaps limits assumed): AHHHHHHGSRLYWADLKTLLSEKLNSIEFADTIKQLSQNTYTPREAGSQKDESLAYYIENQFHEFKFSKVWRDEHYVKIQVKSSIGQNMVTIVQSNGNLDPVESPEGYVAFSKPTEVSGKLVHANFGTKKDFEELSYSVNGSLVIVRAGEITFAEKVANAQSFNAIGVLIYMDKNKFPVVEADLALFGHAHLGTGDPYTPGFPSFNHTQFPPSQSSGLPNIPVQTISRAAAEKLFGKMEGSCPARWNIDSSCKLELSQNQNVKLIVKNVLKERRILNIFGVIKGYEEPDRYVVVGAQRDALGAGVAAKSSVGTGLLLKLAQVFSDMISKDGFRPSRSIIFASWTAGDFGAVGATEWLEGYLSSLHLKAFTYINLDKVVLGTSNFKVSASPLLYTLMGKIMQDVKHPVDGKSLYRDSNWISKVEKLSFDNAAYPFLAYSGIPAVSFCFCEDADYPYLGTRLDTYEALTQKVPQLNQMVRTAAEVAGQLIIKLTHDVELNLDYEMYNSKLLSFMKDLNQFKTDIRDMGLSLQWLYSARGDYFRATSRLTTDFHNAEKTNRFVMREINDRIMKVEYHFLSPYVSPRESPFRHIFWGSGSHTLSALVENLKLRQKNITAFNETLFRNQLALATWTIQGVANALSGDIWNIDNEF

- Kd [11]: 0.699 nM
- koff [11]: 0.000108 s⁻¹
- kon [11]: 154000 M⁻¹ s⁻¹
B5: KB_A07 Fc fusion (Fc fusion)
chain: QVQLQESGGGSVQAGGSLSLSCAASGSIFGSKRMGWFRQAPGEQRDVVATIAVAGTTEYADSVKGRFTISRDNAKNTVYLQMNNLKPEDTAVYYCWMYATANYWGQGTQVTVSSGG[human IgG1 Fc not written out]

- Kd [11]: 0.15 nM
- koff [11]: 6.09e-05 s⁻¹
- kon [11]: 405000 M⁻¹ s⁻¹
B6: KB_A09 Fc fusion (Fc fusion)
chain: QVQLQESGGGLVQAGGSLSLSCAASGDINGSKRMGWFRQAPGKARDVVATITVRGTTEYEDSVKGRFTISRDNAKNTVYLQMNSLKPEDTAVYYCWMFTTTNYWGQGTQVTVSSGG[human IgG1 Fc not written out]
- Binding Ratio (BR) of residue D242 [8]: 2.87
- Binding Ratio (BR) of residue D245 [8]: 3.59
- Binding Ratio (BR) of residue D356 [8]: 3.95
- Binding Ratio (BR) of residue G351 [8]: 3.2
- Binding Ratio (BR) of residue L246 [8]: 2.82
- Binding Ratio (BR) of residue P354 [8]: 3.51
- Binding Ratio (BR) of residue S355 [8]: 2.24

- binding result [12]: no binding (tested: 0.8 to 500 nM)
B7: KB_A08 Fc fusion (Fc fusion)
chain: B5 chain with S31F, K32N, R33A, T56S

- Kd [11]: 5.12 nM
- koff [11]: 0.000353 s⁻¹
- kon [11]: 69000 M⁻¹ s⁻¹
B8: KB_A06 Fc fusion (Fc fusion)
chain: B5 chain with S31F, K32N, R33A, A52T, V53Y, A54R

- Kd [11]: 3.62 nM
- koff [11]: 0.000992 s⁻¹
- kon [11]: 274000 M⁻¹ s⁻¹
B9: KB_A03 Fc fusion (Fc fusion)
chain: B5 chain with T56S, Y98F, A99T, A101D
- Binding Ratio (BR) of residue D242 [8]: 1.76
- Binding Ratio (BR) of residue D245 [8]: 1.64
- Binding Ratio (BR) of residue D356 [8]: 2.24
- Binding Ratio (BR) of residue G351 [8]: 1.56
- Binding Ratio (BR) of residue L246 [8]: 1.55
- Binding Ratio (BR) of residue P354 [8]: 1.94
- Binding Ratio (BR) of residue S355 [8]: 1.54

- binding result [12]: no binding (tested: 0.8 to 500 nM)
B10: KB_A05 Fc fusion (Fc fusion)
chain: B5 chain with S31F, K32N, R33A, T56S, Y98F, A99T, A101D

Second part, the binder before the results:

B1: BV, benchmark VHH (WO 2020/144233) fused to human IgG1 Fc (Fc fusion)
chain: EVQLVESGGGVVQPGGSLKLSCVASGTDFSINFIRWYRQAPGKQREFVAGFTATGNTNYADSMKGRFTISRDNTKNAVYLQIDSLKPEDTAVYYCYMLDKWGQGTQVTVSSGG[human IgG1 Fc not written out]
notes: also called BV-Fc; benchmark VHH-Fc
- Kd [1]: 0.000531 nM
- koff [1]: 2.86e-07 s⁻¹
- kon [1]: 538000 M⁻¹ s⁻¹
- Kd [2]: 0.207 nM
- koff [2]: 0.000113 s⁻¹
- kon [2]: 549000 M⁻¹ s⁻¹
- Kd [3]: 0.00228 nM
- koff [3]: 1.26e-06 s⁻¹
- kon [3]: 551000 M⁻¹ s⁻¹
- Kd [4]: 0.444 nM
- koff [4]: 0.00017 s⁻¹
- kon [4]: 382000 M⁻¹ s⁻¹
- binding result [5]: no binding (tested: not shown on the sheet)

B2: KB_A01 Fc fusion (dimeric VHH-Fc with human IgG1 Fc) (Fc fusion)
chain: B5 chain with A52T, V53Y, A54R, Y98F, A99T, A101D
- fold higher affinity than the free monomeric KB_A01 [6]: 23 fold
- binding result [7]: no binding (tested: 0.16 to 100 nM)
- Binding Ratio (BR) of residue D242 [8]: 2.08
- Binding Ratio (BR) of residue D245 [8]: 2.2
- Binding Ratio (BR) of residue D356 [8]: 1.42
- Binding Ratio (BR) of residue G351 [8]: 2.14
- Binding Ratio (BR) of residue L246 [8]: 2.2
- Binding Ratio (BR) of residue P354 [8]: 2.45
- Binding Ratio (BR) of residue R364 [8]: 1.74
- Kd [1]: 0.081 nM
- koff [1]: 6.49e-05 s⁻¹
- kon [1]: 801000 M⁻¹ s⁻¹
- Kd [9]: 0.403 nM
- koff [9]: 7.5e-05 s⁻¹
- kon [9]: 186000 M⁻¹ s⁻¹
- Kd [2]: 0.206 nM
- koff [2]: 6.03e-05 s⁻¹
- kon [2]: 293000 M⁻¹ s⁻¹
- Kd [10]: 0.189 nM
- koff [10]: 2.86e-05 s⁻¹
- kon [10]: 151000 M⁻¹ s⁻¹
- Kd [3]: 0.177 nM
- koff [3]: 8.49e-05 s⁻¹
- kon [3]: 476000 M⁻¹ s⁻¹

B3: KB_A10 Fc fusion (Fc fusion)
chain: QVQLQESGGGSVQAGGSLRLSCAASEIIFGSKRMGWFRQAPGKQRDLVATITYHGTTKYADSVKGRFTISRDNANNTVYLQMNNLKPEDTAFYYCWMFTTDNYWGQGTQVTVSSGG[human IgG1 Fc not written out]
- Kd [11]: 1.84 nM
- koff [11]: 0.00011 s⁻¹
- kon [11]: 59400 M⁻¹ s⁻¹

B4: KB_A02 Fc fusion (Fc fusion)
chain: B5 chain with S31F, K32N, R33A, A52T, V53Y, A54R, Y98F, A99T, A101D
notes: also called KB_0A2
- binding result [12]: no binding (tested: 0.8 to 500 nM)

B11: KB_A04 Fc fusion (Fc fusion)
chain: B5 chain with A52T, V53Y, A54R
- Kd [11]: 0.414 nM
- koff [11]: 0.000119 s⁻¹
- kon [11]: 287000 M⁻¹ s⁻¹
- binding result [13]: binds

B12: KB_A11 Fc fusion (Fc fusion)
chain: B6 chain with N29F, K43Q, A44Q, R54G, E60A, T101N
- Kd [11]: 0.242 nM
- koff [11]: 8.76e-05 s⁻¹
- kon [11]: 362000 M⁻¹ s⁻¹
- binding result [13]: binds
